# Experimental data: the supplement of paper PMC8728848
# The list shows a part of the results.
# B1: Siglec-E (Mus musculus), Q91Y57 (protein)
# chain: MLLLLLLLLLWGIKGVEGQNPQEVFTLNVERKVVVQEGLCVLVPCNFSYLKKRLTDWTDSDPVHGFWYREGTDRRKDSIVATNNPIRKAVKETRNRFFLLGDPWRNDCSLNIREIRKKDAGLYFFRLERGKTKYNYMWDKMTLVVTALTNTPQILLPETLEAGHPSNLTCSVPWDCGWTAPPIFSWTGTSVSFLSTNTTGSSVLTITPQPQDHGTNLTCQVTLPGTNVSTRMTTRLNVSYAPKNLTVTIYQGADSVSTILKNGSSLPISEGQSLRLICSTDSYPPANLSWSWDNLTLCPSKLSKPGLLELFPVHLKHGGVYTCQAQHALGSQHISLSLSPQSSATLSEMMMGTFVGSGVTALLFLSVCILLLAVRSYRRKPARPAVVAPHPDALKVSVSQNPLVESQADDSSEPLPSILEAAPSSTEEEIHYATLSFHEMKPMNLWGQQDTTTEYSEIKFPQRTAWP
# What was measured:
# Test in all cases: glycan array binding signal (z-score within array); higher = stronger binding
# Details in all cases: glycan notation: IUPAC condensed, linker removed
# [1] = molecular target: Fuc(a1-2)Gal6S(b1-3)GlcNAc
# In short: (§1)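 Arrays were curated from the Consortium for Functional Glycomics database, 3228 in total, and kept only where the protein sequence was available. Binding is expressed as a within-array Z-score. This score was averaged across arrays of the same protein sequence at different concentrations or buffers and across linkers, and negative values can be read as non-binding.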
# [2] = molecular target: Fuc(a1-2)Gal6S(b1-3)GlcNAc6S
# In short: as §1
# [3] = molecular target: Fuc(a1-2)Gal6S(b1-4)Glc
# In short: as §1
# [4] = molecular target: Fuc(a1-2)Gal6S(b1-4)Glc6S
# In short: as §1
# [5] = molecular target: Fuc(a1-2)[Gal(a1-3)]Gal
# In short: as §1
# [6] = molecular target: Fuc(a1-2)[Gal(a1-3)]Gal(b1-3)GalNAc
# In short: as §1
# [7] = molecular target: Fuc(a1-2)[Gal(a1-3)]Gal(b1-3)GalNAc(b1-3)Gal(a1-4)Gal(b1-4)Glc
# In short: as §1
# [8] = molecular target: Fuc(a1-2)[Gal(a1-3)]Gal(b1-3)GlcNAc
# In short: as §1
# [9] = molecular target: Fuc(a1-2)[Gal(a1-3)]Gal(b1-3)GlcNAc(b1-2)Man(a1-3)[Fuc(a1-2)[Gal(a1-3)]Gal(b1-3)GlcNAc(b1-2)Man(a1-6)]Man(b1-4)GlcNAc(b1-4)GlcNAc
# In short: as §1
# [10] = molecular target: Fuc(a1-2)[Gal(a1-3)]Gal(b1-3)GlcNAc(b1-2)Man(a1-3)[Fuc(a1-2)[Gal(a1-3)]Gal(b1-3)GlcNAc(b1-2)Man(a1-6)]Man(b1-4)GlcNAc(b1-4)[Fuc(a1-6)]GlcNAc
# In short: as §1
# [11] = molecular target: Fuc(a1-2)[Gal(a1-3)]Gal(b1-3)GlcNAc(b1-3)GalNAc
# In short: as §1
# [12] = molecular target: Fuc(a1-2)[Gal(a1-3)]Gal(b1-3)GlcNAc(b1-6)GalNAc
# In short: as §1
# [13] = molecular target: Fuc(a1-2)[Gal(a1-3)]Gal(b1-4)Glc
# In short: as §1
# [14] = molecular target: Fuc(a1-2)[Gal(a1-3)]Gal(b1-4)GlcNAc
# In short: as §1
# [15] = molecular target: Fuc(a1-2)[Gal(a1-3)]Gal(b1-4)GlcNAc(b1-2)Man
# In short: as §1
# [16] = molecular target: Fuc(a1-2)[Gal(a1-3)]Gal(b1-4)GlcNAc(b1-2)Man(a1-3)[Fuc(a1-2)[Gal(a1-3)]Gal(b1-4)GlcNAc(b1-2)Man(a1-6)]Man(b1-4)GlcNAc(b1-4)GlcNAc
# In short: as §1
# [17] = molecular target: Fuc(a1-2)[Gal(a1-3)]Gal(b1-4)GlcNAc(b1-2)Man(a1-3)[Fuc(a1-2)[Gal(a1-3)]Gal(b1-4)GlcNAc(b1-2)Man(a1-6)]Man(b1-4)GlcNAc(b1-4)[Fuc(a1-6)]GlcNAc
# In short: as §1
# [18] = molecular target: Fuc(a1-2)[Gal(a1-3)]Gal(b1-4)GlcNAc(b1-3)GalNAc
# In short: as §1
# [19] = molecular target: Fuc(a1-2)[Gal(a1-3)]Gal(b1-4)GlcNAc(b1-3)[Fuc(a1-2)[Gal(a1-3)]Gal(b1-4)GlcNAc(b1-6)]GalNAc
# In short: as §1
# [20] = molecular target: Fuc(a1-2)[Gal(a1-3)]Gal(b1-4)GlcNAc(b1-6)GalNAc
# In short: as §1
# [21] = molecular target: Fuc(a1-2)[Gal(a1-3)]Gal(b1-4)[Fuc(a1-3)]Glc
# In short: as §1
# [22] = molecular target: Fuc(a1-2)[Gal(a1-3)]Gal(b1-4)[Fuc(a1-3)]GlcNAc
# In short: as §1
# [23] = molecular target: Fuc(a1-2)[Gal(a1-3)]Gal(b1-4)[Fuc(a1-3)]GlcNAc(b1-3)GalNAc
# In short: as §1
# [24] = molecular target: Fuc(a1-2)[Gal(a1-4)]Gal(b1-4)GlcNAc
# In short: as §1
# [25] = molecular target: Fuc(a1-2)[GalNAc(a1-3)]Gal
# In short: as §1
# [26] = molecular target: Fuc(a1-2)[GalNAc(a1-3)]Gal(b1-3)GalNAc(a1-3)[Fuc(a1-2)]Gal(b1-4)GlcNAc
# In short: as §1
# [27] = molecular target: Fuc(a1-2)[GalNAc(a1-3)]Gal(b1-3)GalNAc(b1-3)Gal(a1-4)Gal(b1-4)Glc
# In short: as §1
# [28] = molecular target: Fuc(a1-2)[GalNAc(a1-3)]Gal(b1-3)GlcNAc
# In short: as §1
# [29] = molecular target: Fuc(a1-2)[GalNAc(a1-3)]Gal(b1-3)GlcNAc(b1-2)Man(a1-3)[Fuc(a1-2)[GalNAc(a1-3)]Gal(b1-3)GlcNAc(b1-2)Man(a1-6)]Man(b1-4)GlcNAc(b1-4)GlcNAc
# In short: as §1
# [30] = molecular target: Fuc(a1-2)[GalNAc(a1-3)]Gal(b1-3)GlcNAc(b1-2)Man(a1-3)[Fuc(a1-2)[GalNAc(a1-3)]Gal(b1-3)GlcNAc(b1-2)Man(a1-6)]Man(b1-4)GlcNAc(b1-4)[Fuc(a1-6)]GlcNAc
# In short: as §1
# [31] = molecular target: Fuc(a1-2)[GalNAc(a1-3)]Gal(b1-3)GlcNAc(b1-3)GalNAc
# In short: as §1
# [32] = molecular target: Fuc(a1-2)[GalNAc(a1-3)]Gal(b1-3)GlcNAc(b1-6)GalNAc
# In short: as §1
# [33] = molecular target: Fuc(a1-2)[GalNAc(a1-3)]Gal(b1-4)Glc
# In short: as §1
# [34] = molecular target: Fuc(a1-2)[GalNAc(a1-3)]Gal(b1-4)GlcNAc
# In short: as §1
# [35] = molecular target: Fuc(a1-2)[GalNAc(a1-3)]Gal(b1-4)GlcNAc(b1-2)Man
# In short: as §1
# [36] = molecular target: Fuc(a1-2)[GalNAc(a1-3)]Gal(b1-4)GlcNAc(b1-2)Man(a1-3)[Fuc(a1-2)[GalNAc(a1-3)]Gal(b1-4)GlcNAc(b1-2)Man(a1-6)]Man(b1-4)GlcNAc(b1-4)GlcNAc
# In short: as §1
# [37] = molecular target: Fuc(a1-2)[GalNAc(a1-3)]Gal(b1-4)GlcNAc(b1-2)Man(a1-3)[Fuc(a1-2)[GalNAc(a1-3)]Gal(b1-4)GlcNAc(b1-2)Man(a1-6)]Man(b1-4)GlcNAc(b1-4)[Fuc(a1-6)]GlcNAc
# In short: as §1
# [38] = molecular target: Fuc(a1-2)[GalNAc(a1-3)]Gal(b1-4)GlcNAc(b1-3)Gal(b1-4)GlcNAc
# In short: as §1
# [39] = molecular target: Fuc(a1-2)[GalNAc(a1-3)]Gal(b1-4)GlcNAc(b1-3)Gal(b1-4)GlcNAc(b1-3)Gal(b1-4)GlcNAc
# In short: as §1
# [40] = molecular target: Fuc(a1-2)[GalNAc(a1-3)]Gal(b1-4)GlcNAc(b1-3)GalNAc
# In short: as §1
# [41] = molecular target: Fuc(a1-2)[GalNAc(a1-3)]Gal(b1-4)GlcNAc(b1-3)[Fuc(a1-2)[GalNAc(a1-3)]Gal(b1-4)GlcNAc(b1-6)]GalNAc
# In short: as §1
# [42] = molecular target: Fuc(a1-2)[GalNAc(a1-3)]Gal(b1-4)GlcNAc(b1-6)GalNAc
# In short: as §1
# [43] = molecular target: Fuc(a1-2)[GalNAc(a1-3)]Gal(b1-4)[Fuc(a1-3)]GlcNAc
# In short: as §1
# [44] = molecular target: Fuc(a1-2)[GalNAc(a1-3)]Gal(b1-4)[Fuc(a1-3)]GlcNAc(b1-3)GalNAc
# In short: as §1
# [45] = molecular target: Fuc(a1-2)[GalNAc(a1-4)]Gal(b1-4)GlcNAc
# In short: as §1
binder,measurement,setting,value
B1,glycan array binding signal (z-score),[1],-0.173
same,glycan array binding signal (z-score),[2],2.52
same,glycan array binding signal (z-score),[3],-0.15
same,glycan array binding signal (z-score),[4],0.284
same,glycan array binding signal (z-score),[5],-0.371
same,glycan array binding signal (z-score),[6],0.178
same,glycan array binding signal (z-score),[7],-0.454
same,glycan array binding signal (z-score),[8],1.03
same,glycan array binding signal (z-score),[9],-0.19
same,glycan array binding signal (z-score),[10],0.503
same,glycan array binding signal (z-score),[11],5.32
same,glycan array binding signal (z-score),[12],-0.063
same,glycan array binding signal (z-score),[13],-0.317
same,glycan array binding signal (z-score),[14],-0.454
same,glycan array binding signal (z-score),[15],-0.038
same,glycan array binding signal (z-score),[16],-0.367
same,glycan array binding signal (z-score),[17],3.5
same,glycan array binding signal (z-score),[18],-0.33
same,glycan array binding signal (z-score),[19],5.58
same,glycan array binding signal (z-score),[20],-0.005
same,glycan array binding signal (z-score),[21],-0.618
same,glycan array binding signal (z-score),[22],0.611
same,glycan array binding signal (z-score),[23],-0.176
same,glycan array binding signal (z-score),[24],0.07
same,glycan array binding signal (z-score),[25],-0.463
same,glycan array binding signal (z-score),[26],-0.375
same,glycan array binding signal (z-score),[27],-0.363
same,glycan array binding signal (z-score),[28],-0.1
same,glycan array binding signal (z-score),[29],-0.51
same,glycan array binding signal (z-score),[30],0.323
same,glycan array binding signal (z-score),[31],0.555
same,glycan array binding signal (z-score),[32],-0.514
same,glycan array binding signal (z-score),[33],-0.375
same,glycan array binding signal (z-score),[34],-0.437
same,glycan array binding signal (z-score),[35],-0.28
same,glycan array binding signal (z-score),[36],-0.494
same,glycan array binding signal (z-score),[37],0.827
same,glycan array binding signal (z-score),[38],-0.506
same,glycan array binding signal (z-score),[39],-0.473
same,glycan array binding signal (z-score),[40],0.306
same,glycan array binding signal (z-score),[41],0.503
same,glycan array binding signal (z-score),[42],-0.465
same,glycan array binding signal (z-score),[43],1.24
same,glycan array binding signal (z-score),[44],-0.209
same,glycan array binding signal (z-score),[45],-0.49
